The source of these data is the RNAGym collection of RNA variant scans (doi:10.1093/nar/gkz1192).

The source gives no read counts; variants with many changes may rest on few reads.

The labels stand for the following.
B1: CPEB3 Ribozyme (parent)
chain: UAACAGGGGGCCACAGCAGAAGCGUUCACGUCGCAGCCCCUGUCAGAUUCUGGUGAAUCUGCGAAUUCUGCUGUAUAUCUC

The variants in the data set derive from B1. As to the kind of experiment: self-cleavage, relative activity (ratio to wild type); higher = more cleavage; in vitro, sequencing. In a few lines: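 Relative activity compares each variant's cleaved/total read fraction with that of the unmutated ribozyme. To get these fractions, barcoded CPEB3 ribozyme libraries from rounds of error-prone PCR were transcribed with T7 RNA polymerase for 5 hours at 37°C and then given 15 min of DNase I treatment before EDTA was added. The RNAs were reverse transcribed with template switching and sequenced on Illumina, and DNA sequencing linked barcodes to variants. A minimum of 5 reads applied, and three batches were averaged.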
In the case of U25C U26C A28C G36U, the self-cleavage is 0.07.

With U25G U31C U51C, the self-cleavage was found to be 0.31. In the case of U25C U58C U74C C81G, the self-cleavage turned out to be 0.32. As for U25C U48C U67C, the self-cleavage amounted to 0.11.

Take U25C A56G U66C U78C U80C: the self-cleavage is 0.16. For U25C U76G U78C, the self-cleavage stood at 0.46. With U26A G36U U41A C44A A56G A65G U72A, the self-cleavage amounted to 0.04.

U26A A28G A64G: the self-cleavage is 0.29. Take U25C U26A A28G U41C A56C: the self-cleavage stood at 0.06. With U25C U48C A56G A57G A75U the figure was 0.08; with U25C U43C U49A G61C, 0.21. As to U25C A28G U43A U60C A77G U80A, the self-cleavage came to 0.21.

For U25C A65G U72A, the self-cleavage came out at 0.06.

As for U25C U48C U74A U78C, the self-cleavage turned out to be 0.39. As for U26A C39U G61A, the self-cleavage is 0.36. As to U25C U41A U60C C81A, the self-cleavage is 0.07.

With U25C U54C U78C, the self-cleavage was 0.2.

Regarding U25C C40U U78A, the self-cleavage was found to be 0.27. For U25C U60A G70C U78C, the self-cleavage was 0.14. As for U25C U49C A57G U60C A65U U80C, the self-cleavage was 0.12. As for U26A A28G A35G U80C, the self-cleavage stood at 0.97. As for U26A C34A A35G U49C U60C, the self-cleavage amounted to 0.33.

As to U25C U26C U49C U60A, the self-cleavage is 0.08.

On to U25C G30A C37U A56U, for which the self-cleavage is 0.13. As for U26A C38G U43C U76A, the self-cleavage was 0.29.

Turning to U25C U58C U72G, the self-cleavage is 0.48. With U25C A28G C62G the figure was 0.46; with U25G G30U C40U A45G, 0.12; with U25C A47U U48C A65G U69C, 0.1. With U25C A77G U78C the figure was 0.11; with U25C U26C U76C, 0.15; with U25C U26C U31A U54G U66C A75C, 0.05. On to U25C G42A A47G U51A A56G U60A, for which the self-cleavage was 0.23. Regarding U25C U26A A28G, the self-cleavage amounted to 0.37. With U25A U66C U69C U72C the figure was 0.19; with U26A A47G U78C, 0.89; with U25C A47G A56G C62U, 0.13. For U25C A57U G61A, the self-cleavage stood at 0.15. For the variant U25C U60C U66C, the self-cleavage was determined as 0.37. On to U25C U49C U72C U74C, for which the self-cleavage worked out at 0.17. With U25C C40A U60A, the self-cleavage was 0.11. As for U26A A45G U49C U66A, the self-cleavage is 0.14. As for U25C U49A U54C U80C, the figure is 0.08; as for U25C U26C A57G U76A, 0.05; as for U25A U48C U76C U78A, 0.18. As for U25C A47U U48C U69C, the figure is 0.17; as for U25C A65G A75G U80C, 0.1; as for U26A C37U A45G, 0.6.

On to U25C A35G U51A U72C, for which the self-cleavage came out at 0.35.

Turning to U26A A28G U51C, the self-cleavage turned out to be 0.64. Regarding U25C U26C U43G U49C A64G, the self-cleavage is 0.12. Take U26A C40U C81A: the self-cleavage stood at 0.8. U25C G30A U43C A45U A75G: the self-cleavage amounted to 0.12. On to U25C A28G U51C U72A, for which the self-cleavage is 0.13.

Consider U25C U51A U58C, for which the self-cleavage was 0.09.

Regarding U25C U31C C32U U51C A56G, the self-cleavage is 0.07. On to U25C U31C G33U G52A A65G U80C, for which the self-cleavage was 0.22. Consider U25C G63A A65G, for which the self-cleavage is 0.13. In the case of U25C A35G U43C A57G C59U U78G, the self-cleavage came to 0.2. In the case of U25C A35G U54A U72A, the self-cleavage stood at 0.09. As for U25C U31A U41A A57U U78C, the figure is 0.13; as for U25C A35G U51G U67A G70A U74A, 0.06. As for U25C C32A U72C, the figure is 0.1. For U25G C40A U41C U51C U66C, the self-cleavage worked out at 0.08. For U25C U26C G30A A45U A56G A75G, the self-cleavage worked out at 0.13. Consider U25C U26C C29U A64U, for which the self-cleavage amounted to 0.49. As to U25C U49A U72C U74A, the self-cleavage worked out at 0.11. Consider U25C U78C U80C, for which the self-cleavage is 0.1.

In the case of U25C A56U A77U, the self-cleavage was found to be 0.12. With U25C U26C A64G, the self-cleavage is 0.41.

Regarding U25C U41G U69A U80C, the self-cleavage worked out at 0.29. Turning to U25C G52C U67C, the self-cleavage was found to be 0.14. Turning to U25C U43C U54A U74C, the self-cleavage amounted to 0.31. As for U25C A35U U51C U54C A64G U69A U72C, the figure is 0.04; as for U25C U51A A57G, 0.16; as for U25C C38A A47G A56G U69C, 0.05. For U25G U51A U78C, the self-cleavage was 0.34. As for U25C U41C G46A, the figure is 0.09; as for U25C A28U U31C U67C, 0.09. As to U25C A28G U49C C71U, the self-cleavage is 0.11. Turning to U25C C38U U41A U54A A56G U66C, the self-cleavage came out at 0.17. For U25C C37U U54C, the self-cleavage amounted to 0.22. For U26A A35U U51A A56G, the self-cleavage turned out to be 0.31.
